Results as given in PubChem BioAssay (NCI).
Where “and” joins values, the source holds several entries; their conditions need not be identical. Equal entries are not always repeated.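 All cell lines were grown in 96-well plates and treated with compound for 48 hours. Abbreviation: GI50, concentration required for 50% inhibition of growth. TGI: concentration producing complete growth inhibition.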

Test system: NCI-H322M lung
Assay: growth of human tumour cells (NCI), 48 h

| Structure (SMILES) | GI50 | TGI |
| --- | --- | --- |
| CS(=O)(=O)c1ccc(C(=O)Nc2ccc(Cl)c(-c3ccccn3)c2)c(Cl)c1 | > 100 µM and 10.6 µM | > 100 µM |
| COc1ccccc1NC(=O)/C(Cc1nc2ccc([N+](=O)[O-])cc2[nH]c1=O)=N\NC(=O)C[N+](C)(C)C | – | > 100 µM |
| O=S(=O)(c1ccccc1)C(CN1CCCCC1)S(=O)(=O)c1ccccc1 | – | > 100 µM |
| C[C@]12CCC3[C@@H](CC[C@@H]4c5nonc5CC[C@]34C)C1CCC(=O)N2 (stereo partly specified) | – | > 100 µM |
| O=c1ccc2cc(O)c(O)cc2o1 | – | > 100 µM |
| C=CCOC1OC(CO[Si](C)(C)C(C)(C)C)C(OCc2ccccc2)C(OCc2ccccc2)C1OCc1ccccc1 (stereo unspecified) | – | > 100 µM |
| Cc1c2cc[n+](CCN3CCCCC3)cc2c(C)c2c1[nH]c1ccc(O)cc12 | 3.18 µM | 32.7 µM and 25.9 µM |
| O=C(O)C/C=C/CC(=O)O | – | > 100 µM |
| COc1ccc(-c2c(N)n(-c3nc4ccccc4s3)c(=O)c3cc([N+](=O)[O-])ccc23)cc1 | – | > 100 µM |
| C/C(=N\Nc1ccc2ccccc2n1)c1ccccn1 | < 0.0498 µM | 6.91 µM |
| O=C1c2c(c3c4ccccc4[nH]c3c3ccc4ccccc4c23)C(=O)N1CCN1CCCCC1 | 1.47 µM | > 100 µM |
| C/C(=N\Nc1nc2ccccc2s1)c1ncccn1 | – | > 61 µM |
| CC(C)(C)c1ccc(OCCCCCCN2CCNCC2)cc1 | 14.2 µM | 28.2 µM |
| Cc1cc(=O)[nH]c(NN2C(Cl)C(=O)C2c2ccc(Cl)cc2)n1 (stereo unspecified) | – | 50.6 µM |
| C=CCOC(=O)/C(=C\c1ccc(OC)c(OC)c1)c1ccc(OC)c(OC)c1 | – | > 100 µM |
| C1=NCCNCCN=Cc2ccc(cc2)OCc2cccc(n2)COc2ccc1cc2 | – | > 100 µM |
| CN1CCCCC1CCN1CCCCC1 (stereo unspecified) | – | > 100 µM |
| O=C(/C(=C/c1ccccc1)CN1CCCCC1)c1ccccc1 | 3.65 µM | 11.5 µM |
| O=c1[nH]c2ccccc2nc1-c1c[nH]c2ccccc12 | 10.3 µM | > 100 µM |
| COc1cc2c(c(OC)c1OC)-c1ncc3cc(OC)c(OC)c(OC)c3c1C2 | 18.4 µM | 63.8 µM |
| COc1ccc2cc(-c3ccoc(=O)c3-c3cc(OC)c(OC)c(OC)c3)ccc2c1 | – | > 100 µM |
| CN(C)c1ccc(N=Nc2ccc3nc[nH]c3c2)cc1 | – | > 100 µM |
| CN(C)c1nc(=Nc2ccc3ccccc3c2)ss1 | – | > 100 µM |
| CC1C(c2ccccc2)OP(=O)(OC(C#N)c2ccccc2)N1C (stereo unspecified) | – | > 100 µM |
| O=C1C2CC=CCC2C(=O)N1n1c(-c2ccccc2)n[nH]c1=O (stereo unspecified) | – | > 100 µM |
| COC1CC(OS(=O)(=O)c2ccc(C)cc2)C(OC(=O)c2ccccc2)C(C)O1 (stereo unspecified) | – | > 100 µM |
| CC1(C)CC(=O)c2c(nc3ccc4ccccc4c3c2-c2ccc(NC(=O)CCCC(=O)Nc3ccc(-c4c5c(nc6ccc7ccccc7c46)CC(C)(C)CC5=O)cc3)cc2)C1 | – | > 100 µM |

| Structure (SMILES) | GI50 | TGI |
| --- | --- | --- |
| CCOC(=O)C1Oc2ccc([N+](=O)[O-])c3c2C1(O)CCC3 (stereo unspecified) | – | > 100 µM |
| C=CCc1cc(OC)c2c(c1)C(O)CC(c1ccccc1)O2 (stereo unspecified) | – | > 100 µM |
| CCCC(=O)NC1=C(NCC)C(=O)c2ccccc2C1=O | – | > 100 µM |
| c1ccc2c(c1)c(NCCCCN1CCCCC1)cc1c3ccccc3c(NCCCCN3CCCCC3)cc21 | 19.1 µM | 44.7 µM |
| NC(N)=N/N=C/c1c(-c2ccccc2)nc2n1ccc1nc(-c3ccccc3)c(/C=N/N=C(N)N)n12 | – | 90 µM |
| COC(=O)[C@@H]1CN(C(=O)CCc2ccccc2)C(=O)N1C(=O)OCc1ccccc1 | – | > 100 µM |
| CSCC1CC(c2ccc(Cl)cc2)=NO1 (stereo unspecified) | – | > 100 µM |
| N#CC(C(=O)CCC(=O)Nc1cccc(Cl)c1)c1ccccc1 (stereo unspecified) | – | > 100 µM |
| CCOC(=O)c1oc2ccc(OC)c3c2c1CCC3 | – | > 100 µM |
| O=C(NCc1cccnc1)NCc1cccnc1 | – | > 100 µM |
| COc1nc(N)c(NC2OC(CO)C(O)C2O)c(=O)[nH]1 (stereo unspecified) | – | > 100 µM |
| Cn1cnc2nc(Cl)nc(NC(C)(C)C(C)(C)O)c21 | – | > 100 µM |
| Cc1cc(N/N=C/c2nc(-c3ccc(Br)cc3)oc2C)c2cc(Cl)ccc2n1 | > 100 µM | > 100 µM |
| Fc1ccc2nc3n(c2c1)C(c1c(F)cccc1F)SC3 (stereo unspecified) | – | > 100 µM |
| CC(CN1CCN(CCOCCO)CC1)CN1c2ccccc2Sc2ccc(Cl)cc21 (stereo unspecified) | 3.71 µM | 14.4 µM |
| COc1ccc(-c2cc(-c3ccccc3)nc(SCCCC(=O)NO)n2)cc1 | 1.42 µM | 7.68 µM |
| C[Si](C)(C)OC1(C#N)C2C3CC4C2C(=O)C2C4C3C21 (stereo unspecified) | – | > 100 µM |
| O=C(NNC1=NCCN1)c1ccco1 | – | > 100 µM |
| Cc1cc2c(C)n(Cc3ccc(Cl)cc3Cl)nc2c(C#N)c1C | – | > 100 µM |
| CCOC(=O)c1c(N2CCCC2)nsc1Nc1ccccc1 | – | > 100 µM |
| O=C1C(=O)N(c2ccc(Cl)c(Cl)c2)C(=O)C(=O)C1c1nc2ccccc2s1 | – | > 100 µM |
| Cc1ccc(/C=N/Nc2cnccn2)s1 | – | > 100 µM |
| COc1cc(OC)c(OC)cc1/C=N/N=C(\N)NO | – | > 100 µM |
| O=C(O[C@H]1[C@@H](O)[C@H](n2cnc3c(Cl)ncnc32)O[C@@H]1COC(c1ccccc1)(c1ccccc1)c1ccccc1)c1ccccc1 | – | 29.8 µM |
| c1ccc2c(C3NCCc4[nH]cnc43)cccc2c1 (stereo unspecified) | – | > 100 µM |
| COC(=O)C(Cc1ccccc1)NC(=O)NC(=O)NC(=O)CI (stereo unspecified) | 21.2 µM | 47.1 µM |
